From PubChem BioAssay AID2101 (National Center for Advancing Translational Sciences (NCATS), 2009)
The campaign covered roughly 330,000 compounds. About 300 (0.091%) were called active. This list was built around the results that the source calls inconclusive (neither active nor inactive); the mix of calls is not that of the screen. Calls follow the shape of the dose curve; as a rule, active = well fitted inhibition curve with a large enough effect; inconclusive = small, poorly fitted or top-dose-only effect, or effect the other way, or another doubt; inactive = no such curve, though single readings can be large or run the other way. No potency is given beside an inconclusive call; the fits are too rough.
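For activity change, negative = inhibition in this document: 0% = full enzyme activity and -100% = no enzyme basal.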
Potency is read from the fitted curve at half-maximal effect.

The compounds below were run against Lysosomal acid glucosylceramidase (Homo sapiens) (UniProt P04062) (assay: qHTS Assay for Inhibitors and Activators of N370S glucocerebrosidase as a Potential Chaperone Treatment of Gaucher Disease). Settings: N370S GC spleen homogenate, 4MU-glucoside fluorescence; activity change, negative = inhibition: at 59.4 µM (top of the series) unless noted.
`CCOC(=O)CC(NC(=O)CCc1c(C)nc2ncnn2c1C)c1ccc(C)cc1` (configuration not stated) was tested, and the Potency was inconclusive [inhibitor, partial curve, poor fit].
`O=C(Nc1ccc(OC(F)(F)F)cc1)Nc1cccc([N+](=O)[O-])c1` was tested, and the “activity change, negative = inhibition” value was inactive: 5.27%.
With `COc1ccc(NC(=S)Nc2cc(C)cc(C)n2)cc1OC` the activity change, negative = inhibition was inconclusive: 34.7% [activator].
In the case of `CCCn1c(-c2ccc(F)cc2)nc2c(NC3CCN(Cc4ccccc4)CC3)nc(C)nc21`, the “activity change, negative = inhibition” value is reported as inactive: -18.3%.
In the case of `COc1cccc(C2C(C(=O)c3cc4cccc(OC)c4o3)=C(O)C(=O)N2c2cc(C)on2)c1OC` (configuration not stated), the “activity change, negative = inhibition” value is reported as inactive: 0.777%.
In the case of `COc1ccc(-c2nc(C#N)c(NCc3cccnc3)o2)cc1OC`, the “activity change, negative = inhibition” value is reported as inactive: -8.39%.
`COCC(C)N1CC(O)=C(c2nc(-c3ccc(Cl)cc3)cs2)C1=N` (configuration not stated) was tested, and the Potency was inconclusive [activator, partial curve].
With `CCC(C)n1c(SCc2ccccc2)nc2ccsc2c1=O` (configuration not stated) the “activity change, negative = inhibition” value was inactive: 29.4%.
`COc1ccc2cc3cc(C(=O)NCC4CCCO4)oc3nc2c1` (configuration not stated) was tested, and the Potency was inconclusive [activator, single point].
`CSc1nc(-c2ccc(C)cc2)[nH]c1S(=O)(=O)c1ccccc1` was tested, and the Potency was inconclusive [inhibitor, partial curve, poor fit].
With `Cc1ccc(C2N(C)C(=O)c3ccccc3N2C)cc1` (configuration not stated) the Potency was inconclusive [activator, single point].
For `O=c1nc2n(c3ccccc13)Cc1ccccc1-2`, the Potency was inconclusive [inhibitor, single point].
`NC(=O)COc1ccc2cc(-c3ccccc3)c(=O)oc2c1` was tested, and the Potency was inconclusive [activator, partial curve].
With `COC(=O)C1=CN(Cc2ccc(C)cc2)C=C(C(=O)OC)C1c1ccc(F)c(F)c1` the Potency was inconclusive [activator, partial curve].
For `COc1cccc(NC(=O)c2ccc3c(c2)N(CC(=O)N2CCCCC2)C(=O)C(C)(C)O3)c1`, the Potency was inconclusive [inhibitor, full curve, poor fit].
`Nc1ccccc1Nc1ccccc1` was tested, and the “activity change, negative = inhibition” value was inactive: -3.59%.
`CN1CCN(CCc2ccc(Cl)c(Cl)c2)CC1` was tested, and the Potency was inconclusive [inhibitor, single point].
For `CC1CC(=O)N(CC(=O)Nc2ccc3c(c2)OCO3)c2ccccc2S1` (configuration not stated), the Potency was inconclusive [activator, single point].
`Cc1cc(C)cc(NC(=S)NCC2CCCO2)c1` (configuration not stated) was tested, and the activity change, negative = inhibition was inconclusive: 29.7% [activator].
For `COc1ccc2[nH]c(=O)c(C(c3nnnn3C(C)(C)C)N(Cc3ccco3)CC3CCCO3)cc2c1` (configuration not stated), the Potency was inconclusive [activator, partial curve].
`COCCNc1ccnc(-c2ccccc2C(F)(F)F)n1` was tested, and the Potency was inconclusive [inhibitor, partial curve].
In the case of `COC(=O)c1ccccc1NC(=O)Cn1nc(C(F)(F)F)c2c1CCC2`, the Potency is reported as inconclusive [activator, single point].
`COCCNC(=S)N(CCO)Cc1cc2cc3c(cc2[nH]c1=O)OCCO3` was tested, and the Potency was inconclusive [activator, partial curve].
With `Cc1cc(S(=O)(=O)Nc2ccc(C(=O)NCC(c3ccccc3)N(C)C)cc2)ccc1F` (configuration not stated) the Potency was inconclusive [inhibitor, partial curve].
For `CCCN1CCC(NC(=S)Nc2ccc(C(=O)OCC)cc2)CC1`, the “activity change, negative = inhibition” value was inactive: -11.3%.
`CCOc1ccc(C(=O)/C=C/c2cn(CN3CCN(C)CC3)c3ccccc23)cc1` was tested, and the Potency was inconclusive [activator, partial curve].
With `COc1ccccc1NC(=O)CN(c1ccccc1)S(=O)(=O)c1ccccc1` the Potency was inconclusive [activator, partial curve].
In the case of `CC(=O)c1ccc(S(=O)(=O)N2CCN(C(=O)CN3C(=O)NC4(CCCC4)C3=O)CC2)cc1`, the Potency is reported as inconclusive [inhibitor, full curve, poor fit].
With `O=C(CCNC(=O)c1ccccc1Cl)Nc1nc(-c2ccccc2Cl)cs1` the Potency was inconclusive [inhibitor, partial curve].
With `COc1ccc(OC)c(C2=NS(=O)(=O)N(C)C(C(=O)Nc3ccc(F)cc3F)=C2)c1` the Potency was inconclusive [activator, partial curve].
In the case of `COc1ccc(CNCc2ccc3ccccc3c2)c(OC)c1`, the Potency is reported as inconclusive [inhibitor, partial curve].
With `CCOc1ccccc1NC(=O)CC1Nc2cc(C)c(C)cc2NC1=O` (configuration not stated) the Potency was inconclusive [activator, partial curve].
For `O=C(c1cccc(C(=O)N2CCc3ccccc32)n1)N1CCc2ccccc21`, the Potency was inconclusive [activator, partial curve].
For `CCOc1ccc(S(=O)(=O)Nc2ccccc2C(=O)NCC2CCCO2)cc1` (configuration not stated), the “activity change, negative = inhibition” value was inactive: 0.138%.
`CCCN1C(=O)c2ccccc2NC1c1ccc(Cl)c(Cl)c1` (configuration not stated) was tested, and the Potency was inconclusive [activator, single point].
`CC(C)c1ccc(/C=C/C(=O)NC(=S)Nc2ccc(CN3CCOCC3)cc2)cc1` was tested, and the Potency was inconclusive [inhibitor, single point].
For `O=C(Cc1c2ccccc2nc2ccccc12)c1ccccc1`, the Potency was inconclusive [activator, single point].
With `COc1ccc(CCn2c(=N)c(C(=O)NCC3CCCO3)cc3c(=O)n4cccc(C)c4nc32)cc1OC` (configuration not stated) the Potency was inconclusive [inhibitor, full curve, poor fit].
`CCN(CC)Cc1c(O)ccc2c(=O)c(-c3ccccc3OC)coc12` was tested, and the Potency was inconclusive [activator, single point].
In the case of `COCCN1Cc2cccc(C(=O)Nc3cccc(OC)c3)c2C1=O`, the Potency is reported as inconclusive [inhibitor, full curve, poor fit].
`Cc1cccc(NC(=O)c2cccnc2)c1C` was tested, and the “activity change, negative = inhibition” value was inactive: -11.7%.
In the case of `Cc1ccc(CNC(=O)CCCCCNc2nc(=S)[nH]c3ccccc23)cc1`, the Potency is reported as inconclusive [inhibitor, single point].
With `O=C(NC1CCS(=O)(=O)C1)c1cn(-c2ccccc2)nc1-c1ccccc1` (configuration not stated) the Potency was inconclusive [inhibitor, single point].
In the case of `Cc1c(C)c2c(OCC(=O)NCCCO)cc3c(c2oc1=O)CCC(C)(C)O3`, the Potency is reported as inconclusive [activator, partial curve].
For `COc1ccc(C2C(C(=O)NCCN3CCOCC3)c3ccccc3C(=O)N2C2CCCCC2)cc1` (configuration not stated), the Potency was inconclusive [inhibitor, partial curve].
In the case of `Cc1nn(-c2ccccc2)c2c1C(c1ccc(Br)s1)C(C#N)=C(N)O2` (configuration not stated), the Potency is reported as inconclusive [inhibitor, single point].
With `CN(C)c1ccc(N=NS(=O)(=O)O)cc1` the “activity change, negative = inhibition” value was inactive: -17.3%.
With `O=C(Nc1cccc(Cl)c1)N(CCCN1CCOCC1)Cc1ccccc1F` the Potency was inconclusive [inhibitor, partial curve, poor fit].
In the case of `CC(C)(C)NC(=O)C(c1ccc(O)cc1)N(C(=O)CCC(=O)Nc1nccs1)c1cccc(F)c1` (configuration not stated), the Potency is reported as inconclusive [inhibitor, partial curve].
With `CN(C)N1C(N)=C(C#N)C(c2ccc(Cl)cc2)C2=C1CCCC2=O` (configuration not stated) the Potency was inconclusive [activator, single point].
`O=C(Nc1nc2ccccc2s1)c1c(F)cccc1Cl` was tested, and the “activity change, negative = inhibition” value was inactive: -5.61%.
For `Cc1cc(C)cc(C(=O)N2CC(=O)Nc3ccccc32)c1`, the “activity change, negative = inhibition” value was inactive: 5.53%.
`O/N=C1\CCCc2nnc3c(c21)CCCC3` was tested, and the “activity change, negative = inhibition” value was inactive: 11.8%.
With `O=C(Cc1cccc2ccccc12)N/N=C/c1ccc(Sc2cccc3cccnc23)o1` the Potency was inconclusive [activator, full curve].
With `COc1ccc(CCN(C(=O)C(F)(F)F)C(C(=O)NC2CCCCC2)c2cccs2)cc1` (configuration not stated) the Potency was inconclusive [activator, partial curve].
With `COc1ccccc1NS(=O)(=O)c1cc(C(=O)NCC(c2ccco2)N2CCCCC2)ccc1C` (configuration not stated) the Potency was inconclusive [inhibitor, partial curve].
For `CCOc1nc(-c2ccccc2)ccc1-c1noc(COc2ccccc2)n1`, the “activity change, negative = inhibition” value was inactive: 20.8%.
In the case of `NCCCC[C@@H]1NC(=O)[C@H](CCC(=O)O)NC(=O)c2cc([N+](=O)[O-])cc(I)c2OCC[C@@H](C(N)=O)NC1=O`, the Potency is reported as inconclusive [inhibitor, single point].
In the case of `CCOC(=O)Cc1c(C)nc2cc(-c3ccc(Cl)cc3)[nH]n2c1=O`, the “activity change, negative = inhibition” value is reported as inactive: 6.38%.
For `Cc1cccc(NC(=O)c2sc3nc(N)c(C#N)cc3c2N)c1`, the “activity change, negative = inhibition” value was inactive: -7.71%.
With `C/C(=N\NC(=O)COc1ccccc1[N+](=O)[O-])c1cccs1` the “activity change, negative = inhibition” value was inactive: 7.68%.
In the case of `Cc1sc(NC(=O)c2ccco2)c(CN2CCN(Cc3ccccc3)CC2)c1C`, the Potency is reported as inconclusive [inhibitor, single point].
`COC(=O)C1=NN(C(=O)c2ccc(Br)cc2)C(O)(C(C)(C)C)C1` (configuration not stated) was tested, and the Potency was inconclusive [activator, partial curve].
`Cc1cccc(C2=NN(c3ccc(Br)cc3)[C@@H](C(=O)N3CCOC3=O)[C@@H]2c2ccccc2)c1` was tested, and the Potency was inconclusive [activator, partial curve].
For `COc1ccc(Cn2c(N)c(C#N)c3nc4ccccc4nc32)cc1OC`, the Potency was inconclusive [activator, partial curve].
With `CCOC(=O)c1oc2nc(CC(C)C)c3c(c2c1N)CCC3` the Potency was inconclusive [activator, single point].
`Cc1cc(NC(=O)CCCC(=O)OCC(F)(F)C(F)F)cc(C)c1C(=O)O` was tested, and the “activity change, negative = inhibition” value was inactive: 7.34%.
